19 variants from the RNAGym collection of RNA variant scans (doi:10.1073/pnas.2313332121) can be followed below.

This sample is rich in variants without activity. A value given as a limit tells only on which side of the number the result lay.

The chains are these.
B1: TPR 5TU (parent)
chain: GGAUCUUCUCGAUCUAACAAAAAAGACAAAUCUGCCACAAAGCUUGAGAGCAUCUUCGGAUGCAGAGGCGGCAGCCUUCGGUGGCGCGAUAGCGCCAACGUUCUCAACUAUGACACGCAAAACGCGUGCUCCGUUGAAUGGAGUUUAUCAUG

The variants in this data set derive from B1. Kind of data set: polymerase ribozyme fitness, log enrichment relative to wild type (log ratio); higher = more active; in vitro selection for triplet polymerase activity. The method in brief: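 Fitness compares each genotype's enrichment to that of the wild type on a logarithmic scale, averaging replicates with inverse-variance weights. The logarithm is base 2. Enrichment came from Illumina sequencing of input and output libraries after one triplicate round of in vitro selection, which included frozen incubation at −7 °C, of PCR-built, transcribed mutant libraries of each subunit of a heterodimeric triplet polymerase ribozyme. Only genotypes with ≥10 input reads and ≥1 read per output were kept.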
GGAUCUUCUCGAUCGAACAUAAAAGACAAAUCUGCCACAAAGCUUGAGAGUAUCUUCGGAUGCAGAGGCGGCAGCCUUCGGUGGCGCGAUAGCGGCAACGUUCUCAACUAUGACACGCAAAAGGCGUGCUCGGUUGAAUGGAGUUUAUCAUG [U15G A20U C51U C95G C123G C132G]: the “polymerase ribozyme fitness (log ratio)” value is at most -4.2.
As for GGAUCUUCUCGAUCCAACAAAAAAGACAAAUCUGCCACAAAGCUUGAGGGCAUCUUCGGAUGCAGAGGCGGCAGCCUUCGGUGGUGCGAUAGCGCCAACGUUCUCAACGAUGACACGCAAAACGCGUGCUCCGUUGAAUGGAGUUUAUCAUG [U15C A49G C85U U109G], the “polymerase ribozyme fitness (log ratio)” value is -0.987.
The same measure for GGAUCUUCUCGAUCCAACAAAAAAGACAAAUCUGCCACAAAGCUUGAGAGCAUCUUCGGAUGCAGAGCCGGCAGCCUUCGGUGCCGCGAUAGAGCCAAAGUUCUCAACUAUGACACGCAAAACGCUUGCUCCGUUGAAUGGGGUUUAUCAUG [U15C G68C G84C C93A C99A G126U A142G]: at most -4.2; for GGAUCUUCUCGAUCCAACAAAAAAGACAAAUCUGCCACAAAGCUUGAGAGCAUCUUCGGAUGCAGCGGCGGCAGCCUUCGGUGGCGCGAUAGCGCUAACGUUCUCAACUAUGACACGCAAAACGCGUGCUCCGUUGAAUGGAGUUUAUCAUG [U15C A66C C96U]: at most -4.2; for GGAUCUUCUCGAUCCAACAAAAAAGACAAAUCUGCCACAAAGCUUGAGAGCAUAUUCGAAUGCAGAGGCGGCAGCCUUCGGUGUCGCGAUAGCGCCAACGUUCUCGACUAUGACACGCAAAACGCGUGCUCCGUUGAAUGGAGUUGAUCAUG [U15C C54A G59A G84U A106G U146G]: -2.98.
As for GGAUCUUCUCGAUCCAACAAAAAAGACAAAUCUGCCACAACACUUGGGAGCAUCUUCGGAUGCAGAGGCGGCAGCCUUCGGUGGCGCGAUAGUGCCAACGUUCUCAACUUUUACACGCAAAACGCGUGCUCCGUUGAAUGGAGUUUAUCAUG [U15C A41C G42A A47G C93U A110U G112U], the figure is at most -4.2; as for GGAUCUUCUCGAUCCAACAAAAAAGACAAAUCUGCCACAAAGCUUGAGAACAUCUUGGGAUGCAGAGGCGCCAGCCUUCGGUGGCGCGAUAGCGCCAACGUUCUCAACUAUGACACCCAAAACGCGUGCUCCGUUGAAUGGAGUUUAUCAUG [U15C G50A C57G G71C G117C], at most -4.2; as for GGAUCUUCUCGAUCGAACAGAAAAGACAAAUCUGCCACAAAGCUUGAGAGCAUGUUCGGAUGCAGAGCCGGCAGCCUUCGGUGGUGCGAUAGCGCCAACGUUCUAAACUAUGAAACGCAAAACGCGUGCUCCGUUGUAUGGAGUUUAUCAUG [U15G A20G C54G G68C C85U C105A C114A A137U], at most -4.2.
Consider GGAUCUUCUCGAUCGAACAAAGAAGACAAAUCUGCCACAAAGCCUGAGAGCAUCUUCGGAUGCAGAGGCGGCGUCCUUCCGUGGCGCGAUAGCGCCAACGUUCUCAACUAUGACACGCAAAACGCGUGCUCCGUUGAAUGGAGUUUAACAUG [U15G A22G U44C A73G G74U G80C U148A], for which the “polymerase ribozyme fitness (log ratio)” value was at most -4.2.
The same measure for GGAUCUUCUCGAUCCAACAAAAAAGACAAAUCUGCCACAAAGCUUGAGAGCAUCUUCGGAUGCAGAGGCGGCAGCAUACGGUGGCGCGAUAGCGCCAACGUUGUCAACUAUGACACGCAAAGCGCGUGCUCCGUUGAAUGGAGUUUAUCAUG [U15C C76A U78A C103G A122G]: at most -4.2; for GGAUCUUCUCGAUCGACCAAAAAAGACAAAUCUGCCACACAGCUUGAGAGCAUCUUCGGAUGCAGAGGCGGCAGCCUUCGGUGGCGCGAUAGCGCCAACGUUCUCAACUAUGACACGCAAAACGCGUGCUCCGUUGAAUGGAGUUUAUCAUG [U15G A17C A40C]: 0.895.
Turning to GGAUCUUCUCGAUCGAACAAAAAAGACGAAUCUGCCACAAAGCUUGAGAGCAUCUUCGGAUGCAGAGGCGGCAGCCUUAGGUGGCGCGAUAGCGCCAACGUUCUCAACUAUGACACGCAAAACUCGUGCUCCGUUGAAUGGAGUUUAUCAUG [U15G A28G C79A G124U], the “polymerase ribozyme fitness (log ratio)” value was at most -4.2.
As for GGAUCUUCUCGAUCCAACAAAAAAGACAAAUCUGCCACAAAGCUUGAGAGCAUCUUCGGAUGCAGAGGCGGCAGCCUUCCGUGGCGCGAUAGGGCCAACGUUCUCAACUAUGACAGGCAAAACGCGUGCUCCGUUGAAUGGAGUUUAUCAUG [U15C G80C C93G C116G], the figure is -4.05; as for GGAUCUUCUCGAUCGAACAAUAAAGACAAAUCUGCCACAAAGCUUGAGAGCAUCUUCGGAUGCAGAGGCGGCAGCCUUCGGUGGUGCGAUAGCGCCAACGUUCUCAACUAUGACACGCAAUACGCGUGCUCCGUUGAGUGGAGUUUAUCAUG [U15G A21U C85U A121U A138G], -4.04; as for GGAUCUUCUCGAUCGAACAAAAAAGACAGAUCUGCCACAAAGCUUGAGAGCAUCUUCGCAUGCAGAGGCGGCAGCCUUCGGUGUAGCGACAGGGCCAACGUUCUCAACUAUGACGCGCAAAACGCGUGCUCCUUUGAAUGGAGUUUAUCAGG [U15G A29G G59C G84U C85A U90C C93G A115G G133U U151G], at most -4.2.
The same measure for GGAUCUUCUCGAUCGAACAAAACAGACAAAUCUGCCACAAAGCUUGAGAGCAUCUUCGGAUGCAGAGGCGGCAGCCUUCGGUGGCGCGAUACCGCCAACGUUCUCAACUAUGACACGCAAAACGCGUGCUCCGUUGAAUGGAGUUUAUCAUG [U15G A23C G92C]: at most -4.2; for GGAUCUUCUCGAUCCAACAAAAAAGACAAAUCUGCCACAAAGCUUGAGAGCAUCUUCGGAUGCAGAGGCGGCAGCCUUCGGUGCCGCGAUAGCGCCAACGUUCUCAACUAUGACACGCAAAACGUGUGCUCCGGUGAAUGGAGUUUAUCUUG [U15C G84C C125U U134G A150U]: at most -4.2.
Regarding GGAUCUUCUCGAUCCAACAAAAAAGACAAAUCUGGCACUAAGCUUGAGAGCAUCUUCGGAUGCAGAGGCGGCGGCCUUCGGUCGCGCGAUAGCGCCAACAUUCUCAGCUAUGACACGCAAAACGAGUGCUCCGUUGAAUGUAGUUUAUCAUG [U15C C35G A39U A73G G83C G100A A107G C125A G141U], the “polymerase ribozyme fitness (log ratio)” value was at most -4.2.
As for GGAUCUUCUCGAUCGAACAAAAAAGUCAAAUCUGCCACAAAGCUUGAGAGCGUCUUCGGAUGCAGAGGCGGCAGCCUUCGGUAGCGCGAUAGCGCCAACGUGCUCAACUAUGACACGCAAAACGCGUGCUCCGUUGAAUGGAGUUUAUCAUG [U15G A26U A52G G83A U102G], the “polymerase ribozyme fitness (log ratio)” value is at most -4.2.
